Data: patent US20190270798A1 (CHILDREN S MEDICAL CENTER, published 2019)

Target: T1, human Leucine-Rich Repeat-Containing Protein 33 (LRRC33) (human, UniProt Q86YC3 19-692)
T1 construct: tested on cells or in cell lysates; Signal peptide 1-18 as stated left out; also called NRROS; FLAG-LRRC33
T1 sequence: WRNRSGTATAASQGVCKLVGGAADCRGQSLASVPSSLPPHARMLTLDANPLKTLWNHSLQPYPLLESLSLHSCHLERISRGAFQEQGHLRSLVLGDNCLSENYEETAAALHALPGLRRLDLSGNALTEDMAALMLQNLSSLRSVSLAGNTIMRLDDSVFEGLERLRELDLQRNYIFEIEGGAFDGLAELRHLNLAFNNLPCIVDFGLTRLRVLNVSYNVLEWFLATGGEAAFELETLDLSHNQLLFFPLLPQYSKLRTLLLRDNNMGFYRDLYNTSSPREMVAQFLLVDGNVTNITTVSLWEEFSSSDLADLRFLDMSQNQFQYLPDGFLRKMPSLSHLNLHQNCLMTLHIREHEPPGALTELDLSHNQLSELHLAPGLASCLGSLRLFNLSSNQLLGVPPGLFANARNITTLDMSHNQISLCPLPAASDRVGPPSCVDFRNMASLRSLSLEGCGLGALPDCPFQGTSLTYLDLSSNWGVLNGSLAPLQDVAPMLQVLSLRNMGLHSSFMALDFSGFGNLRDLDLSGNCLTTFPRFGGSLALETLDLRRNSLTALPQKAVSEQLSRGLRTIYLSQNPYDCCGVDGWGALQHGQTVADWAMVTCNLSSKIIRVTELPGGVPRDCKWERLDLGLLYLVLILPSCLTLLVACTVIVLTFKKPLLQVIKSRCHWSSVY
Assay: co-immunoprecipitation from 293T lysates (FLAG IP, prodomain blot, and the reverse)
Method: After 48 hours of transfection, cells were collected and lysed in IP lysis buffer (50 mM Tris pH7.4, 150 mM NaCl, 2 mM EDTA, 1% NP-40), which was supplemented with a protease inhibitor cocktail (Roche) and subjected to western blot analysis or were used for immunoprecipitation with the indicated antibody. Performed as described previously {Wang et al, 2012}. L1.2 cells were transfected with indicated plasmid using electroporation. For microglia cell culture, freshly isolated microglia (at age 3 weeks) were cultured in 6-well (2×10⁵ cells per well in 2 ml) poly-D-lysine-coated plates, and grown in serum free microglia culture medium: Neurobasal medium with B-27 supplements (Thermo Fisher), 5 ug/ml insulin, 2 mM L-glutamine, 1 mM sodium pyruvate, 5 μg/ml N-acetyl cysteine (NAC), 100 U/ml penicillin, […] streptomycin, 10 μM thyroxine, 1×SATO (100 μg/ml transferrin, 100 μg/ml BSA, 16 μg/ml putrescine, 60 ng/ml progesterone, 40 ng/ml sodium selenite) (sigma) and mouse recombinant carrier free CSF 10 ng/ml (R&D Systems) at 37° C., 5% CO². Cells were cultured for at least 5 d without changing medium.
Using immunoprecipitation and Western blotting, the prediction that LRRC33 associates with pro-TGF-β1 was confirmed. […]

binding result: binds
B1: human pro-TGF-β1 (ligand)
chain: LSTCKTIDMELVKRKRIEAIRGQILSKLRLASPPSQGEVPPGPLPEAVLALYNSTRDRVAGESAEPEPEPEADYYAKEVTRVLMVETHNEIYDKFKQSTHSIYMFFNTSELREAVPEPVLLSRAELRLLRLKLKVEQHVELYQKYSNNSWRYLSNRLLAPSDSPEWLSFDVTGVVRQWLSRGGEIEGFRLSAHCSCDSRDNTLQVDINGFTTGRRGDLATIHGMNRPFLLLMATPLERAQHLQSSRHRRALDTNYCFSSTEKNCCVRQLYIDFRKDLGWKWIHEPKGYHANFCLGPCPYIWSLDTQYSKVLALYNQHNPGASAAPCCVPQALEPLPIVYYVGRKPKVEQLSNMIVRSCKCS
notes: Prodomain ([…]) plus TGF-β ([…]) of the human precursor, signal peptide […] left out as stated; also called latent TGF-β1
